These results are taken from patent US6034064A, “Peptides and therapeutic agent for autoimmune diseases containing the same” (Hoechst Pharmaceuticals & Chemicals K.K., priority 1995, dated 2000).

The test deals with rat carrageenin-induced paw edema model. The procedure:
To physiological saline, λ-carrageenin ("PICNIN-A", Zushi Chemical Co.) was added at the final concentration of 1 w/v %, and it was heated in a boiling water bath to dissolve I-carrageenin completely. The resulting solution was then allowed to stand at room temperature. Before the experiment, the solution was dissolved completely by heating in a boiling water bath and was allowed to stand in a water bath of about 60iC until administration. Immediately after 50 μl of Peptide (I) of the present invention or physiological saline (non-administered group) were administered subcutaneously to the left leg of Splague-Dawley rats (6 weeks old, male), 50 μl of the 1% carrageenin solution were administered to the same site. The paw volume was measured using plethysmometer (product of BM Instrument Co.) every one hour for 5 hours after carrageenin administration. Incidentally, each group consisted of 10 rats and Dunnets two tail method was used for statistical analysis.

Read-outs that look alike come from different tables or passages of the source. No end group written: not given here.

“AKLTFGKGT [Peptide (I), Ala-Lys-Leu-Thr-Phe-Gly-Lys-Gly-Thr]”: the “onset of edema” value reads like this: (10 μg/site, five hours after carrageenin) “tendency to suppress the edema onset was observed”; (10 μg/site, two hours on and after carrageenin, significant difference of 5%) “suppressed”; (one hour after the administration of carrageenin) “tended to be suppressed”.
